Measured values: patent publication US5342851A, “Substituted thiazole derivatives useful as platelet aggregation inhibitors” (McNeil-PPC, Inc., priority 1992, dated 1994)
The name of at least one read-out is uncertain.

Test system: activated platelets (125I-fibrinogen binding)
Test: Fibrinogen Binding (125I-fibrinogen binding to activated platelets)
Conditions: for Binding (percent of specifically bound 125I-fibrinogen): 30 μM compound, thrombin-stimulated platelets, 0.15 μM 125I-fibrinogen; for Binding (percent): at 50 μM
Protocol: The compounds of the invention as identified above are evaluated for platelet aggregation inhibition activity as indicated by the percentage of nonaggregated platelets which are available for binding in accordance with the following procedure.
Briefly, 40 mL of PRP (obtained from Biological Specialty Corp., Lansdale, Pa.) are centrifuged at 120×g to remove contaminating red cells. Aspirin (50 μM) is added and the PRP is incubated at 37° C. for 20 minutes. […] Platelets are concentrated by a 300×g centrifugation (10 minutes) and the pellet is resuspended in 4 mL. of Tyrode's buffer. The platelet suspension (4 mL) is gel-filtered through a Sepharose-2B column (50 mL bed volume). […] The binding reaction is performed in polystyrene tubes (final volume […]). Reagents are added in the following order: 80 mL of Tyrode's buffer, 50 mL of CaCl2 (final concentration (f.c.) […]) and 50 mL of thrombin (f.c. 0.1 unit/mL). The platelet suspension is then added and the mixture is allowed to incubate at room temperature for 2 minutes. Hirudin (50 mL, f.c. 0.5 unit/mL) is immediately added to prevent the catalytic activity of thrombin. […] The mixture is incubated for 10 minutes at room temperature. To terminate the binding reaction the platelets are sedimented (10,000×g for 3 minutes) through silicone oil (3:1 hi-phenol 550/methyl silicone 200, W. F. Nye, Inc., New Bedford, Mass.), in an Eppendorf centrifuge.
The amount of platelet radioactivity measured in the presence of nonlabeled fibrinogen (4 mg/mL) is considered the nonspecific binding. All samples are repeated in triplicate.
Positive percentages of fibrinogen binding indicates higher activity for inhibiting platelet aggregation since only non-aggregated or free platelets are available for fibrinogen binding.

Structure (SMILES) | Binding (percent of specifically bound 125I-fibrinogen) [%] | Binding (percent) [%]
CCN(CC)CCNC(=O)c1cnn(-c2nc(-c3ccc([N+](=O)[O-])cc3)cs2)c1C(F)(F)F [Example 35] | 64 | 
CCN(CC)CCCNC(=O)c1cnn(-c2nc(-c3ccc(OC)cc3)cs2)c1C(F)(F)F [Example 41] | 57 | 
CCN(CC)CCCNC(=O)c1cnn(-c2nc(-c3cccc(C(F)(F)F)c3)cs2)c1C [Example 48] | 42 | 
O=C(NCCN1CCCC1)c1cnn(-c2nc(-c3cccc(C(F)(F)F)c3)cs2)c1C(F)(F)F [Example 51] | 14 | 
CCN(CC)CCCCNC(=O)c1cnn(-c2nc(-c3cccc(C(F)(F)F)c3)cs2)c1C(F)(F)F [Example 52] | 68 | 
CC1CCCCN1CCCNC(=O)c1cnn(-c2nc(-c3cccc(C(F)(F)F)c3)cs2)c1C(F)(F)F (stereo not shown) [Example 54] | 53 | 
Cc1cccc(-c2csc(-n3ncc(C(=O)NCCN4CCCCC4)c3C(F)(F)F)n2)c1 [Example 55] | 12 | 
CCN(CC)CCCNC(=O)c1cnn(-c2nc(-c3ccc(C(F)(F)F)cc3)cs2)c1C(F)(F)F [Example 56] | 100 | 
O=C(NCCN1CCCCC1)c1cnn(-c2nc(-c3ccc(C(F)(F)F)cc3)cs2)c1C(F)(F)F [Example 57] | 100 | 
NCCCCCNC(=O)c1cnn(-c2nc(-c3cccc(C(F)(F)F)c3)cs2)c1C(F)(F)F [Example 61] | 61 | 
Cc1ccc(-c2csc(-n3ncc(C(=O)NCCCN4CCCCC4)c3C(F)(F)F)n2)cc1 [Example 92] | 64 | 
Cc1ccc(-c2csc(-n3ncc(C(=O)NCCCN4CCCC4)c3C(F)(F)F)n2)cc1 [Example 93] | 25 | 
O=C(NCCCN1CCCCC1)c1cnn(-c2nc(-c3ccccc3)cs2)c1C(F)(F)F [Example 94] | 50 | 
Cc1ccc(-c2csc(-n3ncc(C(=O)NCCCNC4CCCCC4)c3C(F)(F)F)n2)cc1 [Example 96] | 56 | 
Cc1cccc(-c2csc(-n3ncc(C(=O)NCCCN4CCCC4)c3C(F)(F)F)n2)c1 [Example 99] | 34 | 
O=C(NCCCN1CCCCC1)c1cnn(-c2nc(-c3ccccc3C(F)(F)F)cs2)c1C(F)(F)F [Example 100] | 21 | 

Structure (SMILES) | Binding (percent of specifically bound 125I-fibrinogen) [%] | Binding (percent) [%]
O=C(NCCCN1CCCC1)c1cnn(-c2nc(-c3ccccc3C(F)(F)F)cs2)c1C(F)(F)F [Example 101] | 40 | 
O=C(NCCCN1CCCCC1)c1cnn(-c2nc(-c3cccc(Cl)c3)cs2)c1C(F)(F)F [Example 106] | 85 | 
O=C(NCCCNC1CCCCC1)c1cnn(-c2nc(-c3cccc(Cl)c3)cs2)c1C(F)(F)F [Example 107] | 100 | 
O=C(NCCCNC1CCCCC1)c1cnn(-c2nc(-c3cccc(C(F)(F)F)c3)cs2)c1-c1ccccc1 [Example 108] | 100 | 
O=C(NCCCN1CCCCCC1)c1cnn(-c2nc(-c3cccc(C(F)(F)F)c3)cs2)c1C(F)(F)F [Example 109] | 100 | 
CC(C)NCCCNC(=O)c1cnn(-c2nc(-c3cccc(C(F)(F)F)c3)cs2)c1C(F)(F)F [Example 112] | 91 | 
CN(C)C=NCCCNC(=O)c1cnn(-c2nc(-c3cccc(Cl)c3)cs2)c1C(F)(F)F [Example 132, 2-[4-(3-(N,N-Dimethylformamidinyl)propylcarbamoyl]5-(trifluoromethyl)pyrazol-1-yl]-4-(3-chlorophenyl)thiazole] | 39 | 
Cl.NCCCOCc1cnn(-c2nc(-c3cccc(C(F)(F)F)c3)cs2)c1C(F)(F)F [Example 138, 2-[4-[3-Aminopropoxymethyl]-5-(trifluoromethyl)pyrazol-1-yl]-4-(3-trifluoromethylphenyl)thiazole Hydrochloride] | 69 | 
CCN(CC)CCNC(=O)c1ccc(-c2csc(-c3ccc(C(C)(C)C)cc3)n2)cc1 [Example 181] | 100 | 
COc1ccc(-c2nc(-c3ccc(C(=O)NCCCN(C)C)cc3)cs2)cc1 [Example 187] | 100 | 
CC(C)N(CCCCNC(=O)c1ccc(-c2csc(-c3ccc(C(F)(F)F)cc3)n2)cc1)C(C)C [Example 189] | 100 | 
CCCCNCCCNC(=O)c1ccc(-c2csc(-c3ccc(C(F)(F)F)cc3)n2)cc1 [Example 218] | 100 | 
Cn1c(C(=O)NCCCN)ccc1-c1nc(-c2cccc(C(F)(F)F)c2)cs1 [Example 233, 2-[2-(3-Aminopropylcarbamoyl)-1-methyl-1H-pyrrol-5-yl]-4-(3-trifluoromethylphenyl)-1,3-thiazole Hemisfumarate] |  | 100
Cn1c(C(=O)NCCN)ccc1-c1nc(-c2cccc(C(F)(F)F)c2)cs1 [Example 234] |  | 100
Cn1c(C(=O)NCCCCN)ccc1-c1nc(-c2cccc(C(F)(F)F)c2)cs1 [Example 235] |  | 100
